Reference: PubChem BioAssay AID1508624 (National Center for Advancing Translational Sciences (NCATS), 2021)
The whole screen tested about 48,000 compounds, of which about 120 (0.25%) were called active. Inconclusive results (about 4%) are left out. The call rests on the fitted dose curve; in most records, active means well fitted activation curve with a large enough effect; inconclusive means small, poorly fitted or top-dose-only effect, or another doubt; inactive means no such curve, though single readings can be large or run the other way. Some of the results follow.

test: Primary qHTS for Identification of Small Molecule Activators of Huntingtin-Antisense Promoter Activity; settings: HEK293 HTT-AS promoter firefly luciferase reporter, 24 h; series mostly up to 57.5 µM; activity change, positive = activation: at the top concentration; further: nearly all actives have a fitted effect of over 55% in size
Method in brief: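 Luminescence was read after Dual-Glo reagent and a 10 min room-temperature incubation. Values were normalized to vehicle (0% activity) and zero RLU (-100% activity). Reporter HEK293 cells had been exposed to compounds (up to 57.5 uM final) for 24 h.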

Activity change, positive = activation, inactive:
O=C(Cc1ccc(-c2ccc(OCCN3CCOCC3)cc2)cn1)NCc1ccccc1 -33%, Cc1cccc(NC(=O)CS(=O)(=O)c2cccc3nsnc23)c1 -5.53%, Cc1ccc(CCNC(=O)c2c3c(nc4ccccc24)C(=O)N(C2CCCCC2)C3)cc1 -8.01%, Cc1cc(C)c2c(=O)cc(C(=O)Nc3c(C)n(C)n(-c4ccccc4)c3=O)oc2c1 1.28% [at 11.5 µM, percent change from vehicle, -100% = no light], O=C(CCC1N=C2c3ccccc3N=C(SCc3cccc(Cl)c3)N2C1=O)N1CCN(c2ccccc2)CC1 (centres undefined) -15.2%, COc1ccc(C(=O)c2c(N)c(-c3nc(-c4ccc(OC)cc4)cs3)c3ccccn23)cc1 10.2%, COc1cc2[nH]c(=O)n(CCC(=O)N3CCN(c4ccc(Cl)cc4)CC3)c(=O)c2cc1OC -0.0386%, CCn1nc(-c2ccccc2)c(-c2ccccc2)c(C(=O)Nc2ccccc2C#N)c1=O -21.6%, Cc1cc(C)c(/C=C/c2onc(C)c2S(=O)(=O)N2CCC(C(=O)NCc3ccccc3Cl)CC2)c(C)c1 16%, CCOc1ccc(N(CC(=O)Nc2ccccc2CC)S(=O)(=O)c2c(C)noc2C)cc1 -43.9%, Cc1ccc(Cl)cc1NC(=O)C1CCN(S(=O)(=O)c2cccc3nonc23)CC1 -18.3%, COc1cccc(Cn2c(=O)n(CCc3ccccc3)c(=O)c3c2c2cc(OC)ccc2n3C)c1 -9.57%, COc1ccc(C(=O)NNc2ncnc3c2cnn3-c2ccc(C)c(Cl)c2)cc1 -34%, COc1ccc(NC(=O)c2c(NC(=O)c3ccncc3)sc3c2CCC(C(C)(C)C)C3)cc1 (centres undefined) -41.4%, Cc1cccc(NC(=O)CSc2nc3ccccc3nc2N2CCCCC2)c1C 8.87% [at 11.5 µM, percent change from vehicle, -100% = no light], COc1cc(NC(=O)C(Cc2ccccc2)NS(=O)(=O)c2cccc3nsnc23)cc(OC)c1 (centres undefined) -8.98%, CC(=O)SC[C@@H](Cc1ccccc1)C(=O)NCC(=O)OCc1ccccc1 -9.11%, O=C(Cn1ccn(-c2ccc(F)c(F)c2)c(=O)c1=O)NCCc1ccccc1 -13.3%, CC(=O)c1cccc(NC(=O)CCc2c(C)nc3c(c(C)nn3-c3ccccc3)c2C)c1 -29.4%, Cc1cc(C)cc(NC(=O)c2cc(S(=O)(=O)N3CCC(C)CC3)cn2C)c1 -26.1%, CCn1c(-c2nonc2N)nc2cncc(CNC3CCNCC3)c21 -3.85%, CCCCNc1nc(Oc2ccc(=O)n(C)n2)nc(N2CCOCC2)n1 9.49%, CCC(CC)C(=O)Nc1ccc2nc(SCC(=O)N3CCc4ccccc43)sc2c1 -30.8%, Cc1ccc(CNC(=O)CN(c2cccc(C)c2C)S(=O)(=O)c2ccccc2)cc1 -34.2%, CC(=O)c1cccc(NC(=O)C2CCCN(C(=O)c3cnn(-c4ccccc4)c3-n3cccc3)C2)c1 (centres undefined) -27.1%, Cc1cccc(N2CCN(S(=O)(=O)c3cc(Cl)ccc3Cl)CC2)c1C -8.52%, Cn1c2ccccc2c2cnn(CC(=O)N3CCN(c4cccc(C(F)(F)F)c4)CC3)c(=O)c21 -6.09%, COc1ccc(CC(=O)NCc2ccc3c(c2)CCN3C(C)=O)cc1 1.08%, COc1ccc(-c2nc(SCC(=O)Nc3ccc4c(c3)OCCO4)c(-c3ccc(F)cc3)[nH]2)cc1OC -7.03%, Cc1ccc(-c2ccccc2C#N)cc1 3.01%, O=C(c1ccc2c(c1)N(Cc1ccc(F)cc1)C(=O)c1ccccc1S2(=O)=O)N1CCN(Cc2ccccc2)CC1 -39.3%, CC1=C(C(N)=O)C(c2ccc(F)cc2)n2nc(-c3ccccc3Cl)nc2N1 (centres undefined) -0.168%, COc1ccc(S(=O)(=O)c2c(O)c3ccc(C(=O)NCc4ccc(Cl)cc4)cc3[nH]c2=O)cc1 -11.2%, CCOC(=O)C1CCN(C(=O)Cn2ncc3c4ccccc4n(Cc4ccc(F)cc4)c3c2=O)CC1 -16.5%, Cc1csc2nc(COc3ccc(NC(=O)COc4ccccc4)cc3)cc(=O)n12 6.01%, CCN(Cc1ccccc1)C(=O)Cn1c(=O)n(-c2cccc(C)c2)c(=O)c2c1c1cc(C)ccc1n2C -13.5%, Cc1ccc2oc3c(c(=O)c2c1)C(c1ccc([N+](=O)[O-])cc1)N(CCCN1CCOCC1)C3=O (centres undefined) -6.99%, CC(=O)N(O)CCCCCNC(=O)CCC(=O)N(O)CCCCCNC(=O)CCC(=O)N(O)CCCCCN -11.2%, C=CCc1ccccc1OCc1nc2ccccc2n1CC -27.7%, O=C(O)Cc1cccc(-c2cc(CCCCCCc3ccc(O[C@H]4O[C@H](CO)[C@@H](O)[C@H](O)[C@@H]4O)c(-c4cccc(CC(=O)O)c4)c3)ccc2O[C@H]2O[C@H](CO)[C@@H](O)[C@H](O)[C@@H]2O)c1 -1.79% [at 0.74 µM, percent change from vehicle, -100% = no light], O=C(CN1C(=O)c2cccnc2Oc2ccc(Cl)cc21)NCCc1ccccc1 9.54%, CC(C)(C)C(=O)Cn1c(=O)n(-c2ccccc2)c(=O)c2c3c(sc21)CCC3 -10.9%, Cc1cc(NC(=O)CSc2ncc(C(=O)Nc3ccc(Cl)cc3)c(=O)n2C)no1 11.6%, Cc1ccc(Cl)cc1NC(=O)Cn1c(=O)n(Cc2ccccc2)c(=O)c2oc3ccccc3c21 -7.9%, Cc1ccc(CNC(=O)CCc2c(C)nc3nc(C)nn3c2C)cc1 -22%, Cc1ccc(OCC(=O)Nc2cccc(OCc3cc(=O)n4cccc(C)c4n3)c2)cc1C -4.51%, Cc1ccc(CCNC(=O)CCCn2c(=O)c3ccccc3n(Cc3ccccc3C#N)c2=O)cc1 -17.5%, CCc1ccc(O)c(C(=O)c2cnc3cc(-c4ccc(C)cc4)nn3c2)c1 -5.49%, N#Cc1c(C(F)(F)F)cc(-c2cccs2)nc1SCC(=O)Nc1ccccc1F -24.2%, Cc1cc(C)cc(NC(=O)CSc2oc(-c3ccccc3)nc2S(=O)(=O)c2ccccc2)c1 -2.17%, O=C1Cc2cc(CCN3CCN(c4nsc5ccccc45)CC3)c(Cl)cc2N1, CCOc1ccc(-c2cc(C(=O)NCc3ccccc3Cl)c3ccccc3n2)cc1 20.5%, CCn1cc(S(=O)(=O)c2ccccc2)c(=O)c2cc(F)c(N3CCCC3)cc21 -15.2%, Cc1cc(C)cc(NS(=O)(=O)c2ccc3[nH]cc(C(=O)NC4CCCCC4)c(=O)c3c2)c1 -43.6%, Cc1ccc(NC(=O)CCCn2c(=O)c3cccn3c3ccccc32)cc1C -6.58%, CC(C)CC(=O)n1nc(-c2cccnc2)nc1NCc1ccc(F)cc1 -9.67%, COCCCNC(=O)c1ccc(-n2c(-c3ccccc3)cc3c2CCCC3)cc1 7.46%, COc1cccc(-c2nnc(SCC(=O)N3CCC(C)CC3)o2)c1 5.42%, Cc1cc(C)n(-c2nc3ccccc3nc2Nc2ccc(Cl)c(C(=O)OC(C)C)c2)n1 -4.4%, COc1ccc(OCC(=O)OCc2cc(=O)n3nc(-c4cccs4)sc3n2)cc1 10.9%, OC[C@H]1O[C@@H]2O[C@H]3[C@H](O)[C@@H](O)[C@@H](O[C@H]4[C@H](O)[C@@H](O)[C@@H](O[C@H]5[C@H](O)[C@@H](O)[C@@H](O[C@H]6[C@H](O)[C@@H](O)[C@@H](O[C@H]7[C@H](O)[C@@H](O)[C@@H](O[C@H]8[C@H](O)[C@@H](O)[C@@H](O[C@H]1[C@H](O)[C@H]2O)O[C@@H]8CO)O[C@@H]7CO)O[C@@H]6CO)O[C@@H]5CO)O[C@@H]4CO)O[C@@H]3CO -12.6%, COc1ccc2cc(-c3nc(Cl)c4c5c(sc4n3)CC(C)CC5)c(=O)oc2c1 (centres undefined) -11.1%, O=C(Cn1c(=O)n(-c2cccc(Cl)c2)c(=O)c2sc3ccccc3c21)NC1CCCCC1 -11%, Cc1ccc(OCC(=O)Nc2cccc(-c3nc4ccccc4o3)c2C)cc1C -55.1%, CNC(=O)C1CCC(Cn2c(=O)c3sccc3n(CC(=O)NCc3ccc(OC)cc3)c2=O)CC1 (centres undefined) -19.9%, COc1ccccc1NC(=O)c1c(NC(=O)COc2ccccc2)sc2c1CCCCC2 -5.5%, O=C(CSCc1ccc(F)cc1)N1CCN(c2ccc(Cl)cc2)CC1 -22.1%, Clc1ccc(CN2CCC(CNc3ncnc4onc(-c5ccc(Cl)cc5)c34)CC2)cc1 -33.8%, CCc1c(C)nc(SCc2nc(-c3ccccc3)no2)[nH]c1=O -4.69%, COc1cc(OC)c(OC)cc1/C=C/c1nc2cc3ccccc3cc2c(=O)n1-c1ccc(F)c(Cl)c1 -30.7%, O=C(c1ccc2c(c1)N(Cc1ccccc1F)C(=O)c1ccccc1S2(=O)=O)N1CCN(c2ccccc2F)CC1 -3.95%, CCOc1ccc(C(=O)Nc2ccc3nn(-c4ccc(OC)c(Cl)c4)nc3c2)cc1 -15%, CCN(CC)C(=O)c1sc2c(c1C)c(=O)n(CCc1ccccc1)c(=O)n2Cc1ccc(F)cc1Cl -5.45%, CCN[C@H]1C[C@H](C)S(=O)(=O)c2sc(S(N)(=O)=O)cc21, COc1cccc(C(=O)N(Cc2ccc(N(C)C)cc2)Cc2ccco2)c1 -18.5%, CCc1ccc(CNC(=O)CN2C(=O)CSc3ccc(S(=O)(=O)N4CCOCC4)cc32)cc1 -7.06%, O=C(CSc1nc2c([nH]c3ccccc32)c(=O)n1-c1ccc(Cl)cc1)NCc1ccccc1 -23%, CCc1ccc(S(=O)(=O)NCc2cccn2Cc2cccc(C)c2)cc1 -30.2%, CN1CCN(C(CNC(=O)C(=O)Nc2ccccc2C#N)c2ccc3c(c2)OCO3)CC1 (centres undefined) -7.26%, CC1=C(C(=O)Nc2cc(Cl)ccc2C)C(c2ccccc2F)n2ncnc2N1 (centres undefined) -8.59%, CC(C)CCCC(C)NCCC(C)C (centres undefined) -8.23%, COc1cc(C(=O)Nc2sc3c(c2C(N)=O)CCC(C)C3)cc(OC)c1OC (centres undefined) -2.96%, CCn1c(=O)c(=O)n(CC)c2cc(N3CCCCC3)c(NC(=O)c3ccc(OC)c(OC)c3)cc21 0.456%, Cc1ccc2sc(N(CCCN(C)C)C(=O)c3ccco3)nc2c1C -20.9%
